# PubChem BioAssay (NCATS)
# Several values for one entry are separate records, joined by “and”; a condition that tells them apart may be missing. Equal entries are not always repeated. This list was built around the results that the source calls inconclusive (neither active nor inactive); the mix of calls is not that of the screen. For part of these data: Potencies of inconclusive entries are doubtful fits and often do not repeat. Activity calls are given as the source filed them. Unless noted, calls follow the shape of the dose curve; as a rule, active = well fitted cell-killing curve with a large enough effect; inconclusive = small, poorly fitted or top-dose-only effect, or effect the other way; inactive = flat fitted curve, though single readings scatter. *1 amine or outer side, *2 acyl side, *3 side chain or, on linkers, in order; H or OH if unused. Where a SMILES comes first, the peptide text is derived from it. Bridges are numbered along the chain shown (N, C = ends). Roman numbers before positions name the chains, in order. [ ]: non-standard residue; d: D form. Actinocin(9to1) = Cc1c2oc3c(C)ccc(C(=O)[*:1])c3nc-2c(C(=O)[*:2])c(N)c1=O; NMeV = CN[C@H](C(=O)O)C(C)C; Sar = CNCC(=O)O
# Legend:
# [1] = test system: Hek293T; test: Primary qHTS to identify gynecologic anti-cancer compounds using libraries of approved drugs and bioactive compounds (AID 1345084); conditions: Gynecologic cancer cell panel viability, ATPlite luminescence, 48 h, control line for the selectivity index; series mostly up to 57.5 µM; also: nearly all actives have a fitted effect of over 55% in size; also: potency is read from the fitted curve at half-maximal effect
# Method in brief: (§1)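 Cells, 1,000 per well, plated 16 h, then exposed 48 h at 37 C to compounds. Viability by ATPlite luminescence after 15 min at room temperature.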
# [2] = test system: JEG-3; test: as above; conditions: Gynecologic cancer cell panel viability, ATPlite luminescence, 48 h; series mostly up to 57.5 µM
# Method in brief: as §1
# [3] = test system: OV90; test: as above; conditions: Gynecologic cancer cell panel viability, ATPlite luminescence, 48 h; series mostly up to 57.5 µM
# Method in brief: as §1
# [4] = test system: PA-1; test: as above; conditions: Gynecologic cancer cell panel viability, ATPlite luminescence, 48 h; series mostly up to 57.5 µM
# Method in brief: as §1
# [5] = test system: SKOV3; test: as above; conditions: Gynecologic cancer cell panel viability, ATPlite luminescence, 48 h; series mostly up to 57.5 µM
# Method in brief: as §1
# [6] = test system: Tov-21-G; test: as above; conditions: Gynecologic cancer cell panel viability, ATPlite luminescence, 48 h; series mostly up to 57.5 µM
# Method in brief: as §1
# [7] = test system: Tov112D; test: as above; conditions: Gynecologic cancer cell panel viability, ATPlite luminescence, 48 h; series mostly up to 57.5 µM
# Method in brief: as §1
# [8] = target: Nuclear receptor subfamily 1 group I member 2 (Rattus norvegicus) (UniProt Q9R1A7); test: qHTS assay for small molecule activators of the rat pregnane X receptor (rPXR) signaling pathway (AID 651751; call rule not given here; also: 0% is about no effect); conditions: rPXR reporter cells, luciferase (One-Glo), 24 h
# Chain of UniProt Q9R1A7 (Q9R1A7 whole entry, looked up): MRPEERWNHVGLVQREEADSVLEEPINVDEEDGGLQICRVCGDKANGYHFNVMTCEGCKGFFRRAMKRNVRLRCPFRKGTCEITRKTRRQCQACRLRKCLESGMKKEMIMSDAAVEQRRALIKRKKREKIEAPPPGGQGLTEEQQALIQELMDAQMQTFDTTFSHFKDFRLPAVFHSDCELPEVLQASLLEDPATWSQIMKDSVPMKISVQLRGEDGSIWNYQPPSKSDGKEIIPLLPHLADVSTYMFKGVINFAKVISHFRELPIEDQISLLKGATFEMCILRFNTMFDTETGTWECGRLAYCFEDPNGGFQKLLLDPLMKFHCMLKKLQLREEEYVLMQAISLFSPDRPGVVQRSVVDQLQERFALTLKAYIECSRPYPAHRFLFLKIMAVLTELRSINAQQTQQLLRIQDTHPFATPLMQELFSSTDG
# Tags tell the direction and shape of the fitted curve.
Structure (SMILES),Potency [1],Potency [2],Potency [3],Potency [4],Potency [5],Potency [6],Potency [7],max response [8]
Cc1ccc(O)c2ncccc12,inactive,–,–,–,–,–,–,–
"Cc1c2oc3c(C)ccc(C(=O)N[C@@H]4C(=O)N[C@H](C(C)C)C(=O)N5CCC[C@H]5C(=O)N(C)CC(=O)N(C)[C@@H](C(C)C)C(=O)O[C@@H]4C)c3nc-2c(C(=O)N[C@@H]2C(=O)N[C@H](C(C)C)C(=O)N3CCC[C@H]3C(=O)N(C)CC(=O)N(C)[C@@H](C(C)C)C(=O)O[C@@H]2C)c(N)c1=O (I: T[dV]P[Sar][NMeV] / II: T[dV]P[Sar][NMeV]; ester I:1-I:C, II:1-II:C; linker I:N-II:N via Actinocin(9to1))",inconclusive: 0.1 µM,inconclusive: 0.708 µM,inconclusive: 3.16 µM,inconclusive: 316 µM,inconclusive: 12.6 µM,inconclusive: 1.12 µM,inconclusive: 0.0355 µM,inconclusive: -19.7% [activator] and inconclusive: -27.3% [activator]
Nc1c2ccccc2nc2ccccc12,active: 8.91 µM,"inconclusive: 31.6 µM [cytotoxic, single point]",active: 28.2 µM,"inconclusive: 10 µM [cytotoxic, partial curve, poor fit]","inconclusive: 20 µM [cytotoxic, partial curve, poor fit]",–,"inconclusive: 31.6 µM [cytotoxic, single point]",–
Cc1ccc(C(=O)C(C)CN2CCCCC2)cc1 (centres undefined),inactive,–,–,–,–,–,–,–
CCCCCCCCCCCCCCCC[N+](C)(C)CCN(Cc1ccc(OC)cc1)c1ncccn1,"inconclusive: 22.4 µM [cytotoxic, single point]","inconclusive: 35.5 µM [cytotoxic, single point]","inconclusive: 35.5 µM [cytotoxic, single point]",active: 15.8 µM,active: 20 µM,"inconclusive: 31.6 µM [cytotoxic, single point]",active: 20 µM,–
Cn1cnc([N+](=O)[O-])c1Sc1ncnc2nc[nH]c12,active: 15.8 µM and active: 28.2 µM,active: 3.16 µM,active: 3.98 µM and active: 7.08 µM,active: 1.12 µM and active: 7.08 µM,–,active: 1.12 µM and active: 3.16 µM,active: 5.62 µM and active: 7.08 µM,–
CC1(CN2CCC(n3c(=O)[nH]c4ccccc43)CC2)OCc2ccccc2-n2cccc21 (centres undefined),inactive,inactive,–,–,–,–,–,–
O=S(=O)(O)c1ccc2cc(N=Nc3cc(S(=O)(=O)O)c4cccnc4c3O)ccc2c1,inactive,–,–,–,–,–,–,–
CCN(CC)CCNc1ccc(CO)c2sc3ccccc3c(=O)c12,active: 35.5 µM,"inconclusive: 22.4 µM [cytotoxic, partial curve, poor fit]",active: 35.5 µM,active: 28.2 µM,"inconclusive: 31.6 µM [cytotoxic, partial curve, poor fit]","inconclusive: 7.08 µM [cytotoxic, partial curve]","inconclusive: 39.8 µM [cytotoxic, single point]",–
C[n+]1cc2c3c(ccc2c2ccc4cc5c(cc4c21)OCO5)OCO3,active: 8.91 µM,"inconclusive: 10 µM [cytotoxic, single point]",active: 11.2 µM,–,active: 3.55 µM,active: 7.94 µM,active: 10 µM,–
CC(=O)N(O)CCCCCNC(=O)CCC(=O)N(O)CCCCCNC(=O)CCC(=O)N(O)CCCCCN,"inconclusive: 14.1 µM [cytotoxic, partial curve, poor fit]","inconclusive: 12.6 µM [cytotoxic, partial curve]",active: 6.31 µM,"inconclusive: 2.51 µM [cytotoxic, full curve, poor fit]",inactive,–,"inconclusive: 17.8 µM [cytotoxic, partial curve, poor fit]",–
CCOc1ccc2nc3cc(N)ccc3c(N)c2c1,"inconclusive: 15.8 µM [cytotoxic, partial curve]","inconclusive: 22.4 µM [cytotoxic, partial curve, poor fit]","inconclusive: 35.5 µM [cytotoxic, single point]","inconclusive: 15.8 µM [cytotoxic, partial curve, poor fit]","inconclusive: 39.8 µM [cytotoxic, single point]",–,"inconclusive: 35.5 µM [cytotoxic, single point]",–
COc1ccc(-c2cc3c(C)nc(N)nc3n(C3CCC(OCCO)CC3)c2=O)cn1 (centres undefined),active: 1.41 µM,"inconclusive: 1.41 µM [cytotoxic, full curve]",active: 2 µM,active: 2.51 µM,active: 1.26 µM,active: 6.31 µM,"inconclusive: 2.24 µM [cytotoxic, full curve, poor fit]",–
CN1CCC(Nc2ncc3ncnc(Nc4ccc(F)c(Cl)c4)c3n2)CC1,"inconclusive: 12.6 µM [cytotoxic, partial curve]","inconclusive: 20 µM [cytotoxic, single point]","inconclusive: 39.8 µM [cytotoxic, single point]","inconclusive: 28.2 µM [cytotoxic, single point]","inconclusive: 17.8 µM [cytotoxic, single point]",–,–,–
CCC(C)(C)C(=O)O[C@H]1C[C@@H](C)C=C2C=C[C@H](C)[C@H](CC[C@@H]3C[C@@H](O)CC(=O)O3)[C@H]21,"inconclusive: 14.1 µM [cytotoxic, partial curve, poor fit]",–,–,–,–,–,–,–
CC(C)c1cnn2c(NCc3ccccc3)cc(N[C@@H](CO)[C@H](O)CO)nc12,active: 1.41 µM,"inconclusive: 3.55 µM [cytotoxic, full curve]","inconclusive: 3.98 µM [cytotoxic, single point]",active: 1 µM,"inconclusive: 4.47 µM [cytotoxic, single point]",active: 1.58 µM,active: 3.16 µM,–
COc1ccc(C[C@H](N)C(=O)N[C@H]2[C@@H](O)[C@H](n3cnc4c(N(C)C)ncnc43)O[C@@H]2CO)cc1,active: 2.82 µM,active: 3.98 µM,active: 3.16 µM,active: 0.708 µM,active: 3.55 µM,active: 3.98 µM,active: 2 µM,–
COc1c2occc2c(OC)c2c(=O)cc(C)oc12,"inconclusive: 7.08 µM [rising, single point]",–,–,–,–,–,–,–
CO[C@@]12[C@H](COC(N)=O)C3=C(C(=O)C(C)=C(N)C3=O)N1C[C@@H]1N[C@@H]12,"inconclusive: 31.6 µM [cytotoxic, single point]","inconclusive: 1.41 µM [cytotoxic, full curve]",active: 17.8 µM,"inconclusive: 2.24 µM [cytotoxic, full curve, poor fit]","inconclusive: 10 µM [cytotoxic, partial curve, poor fit]",active: 14.1 µM,active: 0.794 µM,–
CC[C@@]1(O)C(=O)OCc2c1cc1n(c2=O)Cc2cc3c(CN(C)C)c(O)ccc3nc2-1,"inconclusive: 7.08 µM [cytotoxic, partial curve] and active: 8.91 µM","inconclusive: 8.91 µM [cytotoxic, partial curve, poor fit] and inconclusive: 4.47 µM [cytotoxic, full curve, poor fit]","inconclusive: 6.31 µM [cytotoxic, partial curve, poor fit] and inconclusive: 10 µM [cytotoxic, partial curve, poor fit]",active: 447 nM and active: 1.58 µM,"inconclusive: 3.98 µM [cytotoxic, full curve, poor fit] and active: 14.1 µM","inconclusive: 20 µM [cytotoxic, partial curve, poor fit]",active: 316 nM and active: 1.41 µM,–
Cc1cc(SCc2sc(-c3ccc(C(F)(F)F)cc3)nc2C)ccc1OCC(=O)O,inactive,–,–,–,–,–,–,–
COc1cccc2c(NCc3ccccc3)nc(-n3c(N)nc4ccccc43)nc12,"inconclusive: 39.8 µM [cytotoxic, single point]","inconclusive: 39.8 µM [cytotoxic, single point]",active: 25.1 µM,"inconclusive: 35.5 µM [cytotoxic, single point]","inconclusive: 39.8 µM [cytotoxic, single point]","inconclusive: 28.2 µM [cytotoxic, single point]","inconclusive: 35.5 µM [cytotoxic, single point]",–
COc1ccc(CCN2CCC(Nc3nc4ccccc4n3Cc3ccc(F)cc3)CC2)cc1,"inconclusive: 31.6 µM [cytotoxic, single point]","inconclusive: 39.8 µM [cytotoxic, single point]","inconclusive: 35.5 µM [cytotoxic, single point]","inconclusive: 39.8 µM [cytotoxic, single point]","inconclusive: 22.4 µM [cytotoxic, single point]","inconclusive: 31.6 µM [cytotoxic, single point]","inconclusive: 35.5 µM [cytotoxic, single point]",–
